Experimental data published in PMC11014987.
Positions count from the first letter of the chain named. These are yes or no findings as the source states them, for the method shown. Some binding calls cover weakened binding; strength is not graded here. Tags and fused reporters may be left off the sequences shown.

T1: HemA (a glutamyl-tRNA reductase) (yeast two-hybrid fusion) (Synechocystis sp. PCC 6803) (UniProt P28463)
T1 sequence: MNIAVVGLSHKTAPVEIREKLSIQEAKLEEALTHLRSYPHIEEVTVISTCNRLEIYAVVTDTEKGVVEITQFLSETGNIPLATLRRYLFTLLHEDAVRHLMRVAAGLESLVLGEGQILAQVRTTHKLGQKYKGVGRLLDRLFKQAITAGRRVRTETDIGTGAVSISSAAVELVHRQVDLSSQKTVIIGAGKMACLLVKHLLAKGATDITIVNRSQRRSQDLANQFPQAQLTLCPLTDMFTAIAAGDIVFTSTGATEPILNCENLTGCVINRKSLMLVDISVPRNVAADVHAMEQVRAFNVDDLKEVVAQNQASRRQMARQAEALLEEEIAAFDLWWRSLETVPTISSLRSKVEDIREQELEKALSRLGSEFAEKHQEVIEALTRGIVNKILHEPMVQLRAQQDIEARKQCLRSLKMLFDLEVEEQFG

T2: SdhB1 (sll1625), iron-sulfur cluster binding subunit of the succinate dehydrogenase complex (yeast two-hybrid fusion) (Synechocystis sp. PCC 6803) (UniProt P73723)
T2 sequence: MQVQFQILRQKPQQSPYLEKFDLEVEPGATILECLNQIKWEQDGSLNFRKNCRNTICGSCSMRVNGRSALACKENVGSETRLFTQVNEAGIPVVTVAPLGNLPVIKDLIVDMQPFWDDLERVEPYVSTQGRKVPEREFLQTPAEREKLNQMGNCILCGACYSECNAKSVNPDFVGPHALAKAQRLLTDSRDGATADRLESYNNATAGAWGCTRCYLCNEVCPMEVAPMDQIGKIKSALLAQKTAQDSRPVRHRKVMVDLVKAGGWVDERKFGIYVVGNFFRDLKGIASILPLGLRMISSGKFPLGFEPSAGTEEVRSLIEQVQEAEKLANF

T3: slr0665, an aconitate hydratase (yeast two-hybrid fusion) (Synechocystis sp. PCC 6803) (UniProt P74582)
T3 sequence: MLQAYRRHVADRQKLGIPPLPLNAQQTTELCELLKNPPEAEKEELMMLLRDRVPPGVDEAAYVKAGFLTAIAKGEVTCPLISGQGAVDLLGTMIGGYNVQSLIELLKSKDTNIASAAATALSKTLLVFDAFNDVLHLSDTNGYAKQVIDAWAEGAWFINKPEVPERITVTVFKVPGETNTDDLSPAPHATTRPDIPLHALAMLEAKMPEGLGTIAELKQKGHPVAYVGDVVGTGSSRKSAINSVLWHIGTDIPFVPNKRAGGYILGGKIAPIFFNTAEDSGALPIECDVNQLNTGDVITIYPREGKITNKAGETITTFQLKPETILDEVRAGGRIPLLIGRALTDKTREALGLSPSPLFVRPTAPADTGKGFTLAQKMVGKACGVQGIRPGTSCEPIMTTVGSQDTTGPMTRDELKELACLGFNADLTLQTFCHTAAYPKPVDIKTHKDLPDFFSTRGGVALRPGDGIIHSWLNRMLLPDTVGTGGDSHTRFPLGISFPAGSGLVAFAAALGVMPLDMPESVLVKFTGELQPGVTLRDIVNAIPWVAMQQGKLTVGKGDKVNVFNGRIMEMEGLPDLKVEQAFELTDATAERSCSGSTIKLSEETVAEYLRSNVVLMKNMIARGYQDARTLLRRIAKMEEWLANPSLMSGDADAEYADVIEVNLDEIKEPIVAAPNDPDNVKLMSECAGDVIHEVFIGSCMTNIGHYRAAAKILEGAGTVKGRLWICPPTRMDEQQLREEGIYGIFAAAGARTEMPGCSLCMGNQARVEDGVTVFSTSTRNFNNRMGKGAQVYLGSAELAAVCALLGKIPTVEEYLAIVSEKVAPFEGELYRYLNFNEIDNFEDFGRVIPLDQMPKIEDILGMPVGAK

B1: Dri1 (yeast two-hybrid fusion) (protein, UniProt P73129 1-96)
chain: MADPLTPAISDRICKHMNEDHASAIALYAQVFGQQTDVTMAQMQAIDPTGMDLVVESEGGSKTIRIEFEQPLKDSEDAHQVLIAMAKQARSVGKNS
B2: Dri1 Arg90Ala (yeast two-hybrid fusion) (protein, UniProt P73129 1-96)
chain: B1 chain with R90A
B3: Dri1 His79Ala-Arg90Ala (yeast two-hybrid fusion) (protein, UniProt P73129 1-96)
chain: B1 chain with H79A, R90A
B4: Dri1 His79Ala (yeast two-hybrid fusion) (protein, UniProt P73129 1-96)
chain: B1 chain with H79A
B5: Dri1 His16Ala (yeast two-hybrid fusion) (protein, UniProt P73129 1-96)
chain: B1 chain with H16A
B6: Dri1 His21Ala (yeast two-hybrid fusion) (protein, UniProt P73129 1-96)
chain: B1 chain with H21A
B7: Dri1 Glu76Ala (yeast two-hybrid fusion) (protein, UniProt P73129 1-96)
chain: B1 chain with E76A

biological target: T1, HemA (a glutamyl-tRNA reductase) (yeast two-hybrid fusion) (Synechocystis sp. PCC 6803); assay: two-hybrid; yeast Y2H-Gold, Gal4 system (pGBKT7 / pGADT7-AD); growth on SD -Leu -Trp -His -Ala, 30 °C, 3 days; three independent clones

Row | Binder | binding
1 | B1 | no binding

biological target: T2, SdhB1 (sll1625), iron-sulfur cluster binding subunit of the succinate dehydrogenase complex (yeast two-hybrid fusion) (Synechocystis sp. PCC 6803); assay: as above

Row | Binder | binding
2 | B2 | binds
3 | B3 | binds
4 | B1 | binds
5 | B4 | binds
6 | B5 | no binding
7 | B6 | no binding
8 | B7 | no binding

biological target: T3, slr0665, an aconitate hydratase (yeast two-hybrid fusion) (Synechocystis sp. PCC 6803); assay: as above

Row | Binder | binding
9 | B1 | no binding
